# Data taken from the supplement of paper PMC3334620.
# Over roughly 33,000 sequences, “E-score (-0.5 to 0.5)” has its median near -0.053; the highest 2% begin near 0.37. The list shows a part of the results.
# Target: Hap1 (UniProt P0CE41)
# Test: PBM E-score (8-mer binding enrichment) (E-score (-0.5 to 0.5)); higher = stronger / more preferred TF binding; most listed sequences are background and not binding sites
# Conditions: protein concentration: 200 nM; construct: GST-DNA-binding domain
# Experimental: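 Universal 'all 10-mer' protein binding microarrays (Agilent AMADID 015681) probed with GST-tagged S. cerevisiae TFs (full-length or DBD) made by in vitro transcription/translation (PURExpress), about 100-200 nM. Bound TF was detected with fluorescent anti-GST. Each ungapped 8-mer (which stands for itself and its reverse complement) is scored by the PBM enrichment score (E-score), a modified Wilcoxon-Mann-Whitney statistic from -0.5 to +0.5, computed with the Universal PBM Analysis Suite. Scale: above 0.35 generally sequence-specific binding.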
# Chain of UniProt P0CE41 (P0CE41 whole entry): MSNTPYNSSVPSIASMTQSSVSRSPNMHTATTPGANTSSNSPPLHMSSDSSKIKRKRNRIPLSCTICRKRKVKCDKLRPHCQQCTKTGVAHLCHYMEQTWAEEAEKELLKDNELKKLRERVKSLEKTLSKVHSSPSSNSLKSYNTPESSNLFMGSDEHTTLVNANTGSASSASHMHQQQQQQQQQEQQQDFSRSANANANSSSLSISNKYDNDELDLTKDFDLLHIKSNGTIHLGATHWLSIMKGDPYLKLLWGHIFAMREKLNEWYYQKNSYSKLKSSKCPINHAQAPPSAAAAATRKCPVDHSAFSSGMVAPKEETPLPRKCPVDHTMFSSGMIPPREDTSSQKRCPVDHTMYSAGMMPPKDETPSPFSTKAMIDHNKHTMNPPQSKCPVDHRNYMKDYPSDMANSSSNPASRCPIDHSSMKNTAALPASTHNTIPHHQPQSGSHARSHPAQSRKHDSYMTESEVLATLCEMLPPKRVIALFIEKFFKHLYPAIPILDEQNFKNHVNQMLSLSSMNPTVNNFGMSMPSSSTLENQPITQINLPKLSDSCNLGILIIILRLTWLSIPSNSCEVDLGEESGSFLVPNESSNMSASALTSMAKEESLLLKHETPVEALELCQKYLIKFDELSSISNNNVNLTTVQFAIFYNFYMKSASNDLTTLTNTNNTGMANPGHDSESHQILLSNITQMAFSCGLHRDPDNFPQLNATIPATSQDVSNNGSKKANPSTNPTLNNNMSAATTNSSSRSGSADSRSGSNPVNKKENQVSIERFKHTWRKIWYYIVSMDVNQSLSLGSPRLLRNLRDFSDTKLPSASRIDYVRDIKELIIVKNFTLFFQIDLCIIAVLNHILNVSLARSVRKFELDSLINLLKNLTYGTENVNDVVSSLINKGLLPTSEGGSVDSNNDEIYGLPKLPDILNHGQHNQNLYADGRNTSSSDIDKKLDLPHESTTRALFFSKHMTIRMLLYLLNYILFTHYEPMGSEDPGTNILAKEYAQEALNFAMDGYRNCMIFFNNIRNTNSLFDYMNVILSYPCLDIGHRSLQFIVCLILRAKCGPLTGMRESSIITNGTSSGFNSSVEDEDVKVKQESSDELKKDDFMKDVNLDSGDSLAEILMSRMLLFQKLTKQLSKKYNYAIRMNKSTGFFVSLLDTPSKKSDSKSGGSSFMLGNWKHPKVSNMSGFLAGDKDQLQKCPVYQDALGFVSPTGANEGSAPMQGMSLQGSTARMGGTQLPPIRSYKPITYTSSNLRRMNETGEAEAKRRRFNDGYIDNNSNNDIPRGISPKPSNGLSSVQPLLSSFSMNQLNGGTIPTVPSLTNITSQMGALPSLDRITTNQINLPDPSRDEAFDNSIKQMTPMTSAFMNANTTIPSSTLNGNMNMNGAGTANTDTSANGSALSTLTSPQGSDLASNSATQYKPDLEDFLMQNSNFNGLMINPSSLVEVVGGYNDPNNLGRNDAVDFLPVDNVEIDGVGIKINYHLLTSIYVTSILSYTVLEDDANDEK
row,Sequence,PBM E-score
1,AGTCGAAA,-0.126
2,AGGTTCTG,-0.204
3,GTGGCATA,-0.0922
4,GATACACA,0.0335
5,CATTTTGG,-0.129
6,CTAAATCA,-0.138
7,AGAAATAG,-0.138
8,GTACCCGA,0.188
9,ACACTGCT,-0.3
10,CTCTCCGA,0.203
11,ACGGAGCG,0.202
12,AACAGAAT,-0.202
13,GTATTCAA,0.00806
14,GAAAGAGA,-0.0478
15,ACCGTCCC,0.141
16,CTTCTAGA,-0.156
17,ATCCGCTG,0.154
18,AACTTCCG,0.367
19,ACTTTAAT,-0.0811
20,ATGCAGTA,0.0746
21,ACTCGTGA,-0.242
22,CGTCCCGC,0.079
23,AACGTTCG,-0.0284
24,AAGATAGC,0.117
25,AAGCTTTG,0.0102

row,Sequence,PBM E-score
1,ATGTGAGC,-0.232
2,TCAGGTCA,-0.145
3,CCGGGTGA,0.35
4,AAGTGCGT,-0.0316
5,CTCGGCAG,0.267
6,AAGCACCT,-0.156
7,GCATAAAA,0.0349
8,CACCTGCG,-0.00451
9,ATATTGGC,-0.00358
10,AAGGCAAT,0.0609
11,ATAGCCTG,-0.295
12,AAGCCCAG,-0.198
13,GGTGTTGA,-0.0742
14,CGCCCCGC,0.227
15,ACATAGAC,-0.0947
16,ACACATCC,0.0838
17,GACTGCAA,-0.375
18,AACGTACT,-0.141
19,TCCAATAA,0.00964
20,AAAAGGCA,-0.00641
21,AAAGTGCT,-0.21
22,AGCACCGA,0.341
23,ATACTGGA,0.0876
24,AAAGGATT,-0.143
25,CAACCACA,0.00922

row,Sequence,PBM E-score
1,CTGACAAA,-0.216
2,ATTAAGAC,-0.107
3,CCTGATTC,-0.186
4,ATATCACG,-0.0241
5,CGCATAAA,-0.0638
6,GCACTCAA,-0.0427
7,TGTACACA,-0.34
8,ACCCCGGA,0.37
9,ATTTCTAC,0.0329
10,ACTACTTG,-0.189
11,AACTTAAC,0.118
12,GCACGTGA,-0.273
13,GAAGCACA,-0.0961
14,CAATCCCG,0.272
15,ATACCGTG,0.0634
16,CCCCGGGG,0.388
17,ACCTGGGC,-0.233
18,GGTTGAAC,-0.0103
19,CATTAACG,0.188
20,AAGAATCA,-0.0768
21,GCGTGTCC,0.0514
22,ACACATGT,-0.0606
23,CATTCAGA,-0.141
24,ATCCGCTA,0.306
25,CCAATTCC,-0.0102

row,Sequence,PBM E-score
1,ATTATCGC,0.132
2,CGGAAAAA,0.4
3,AACTGTGG,-0.249
4,AGGCAGGC,-0.133
5,ATGGACAA,-0.228
6,AGGGTATG,-0.275
7,ACCAGAAC,-0.0565
8,ATTTAACA,-0.0502
9,AGAAAGGA,-0.0267
10,AATCAAAT,0.0445
11,CGCGTCAG,-0.145
12,GAGAGGAA,-0.12
13,ATACTCAT,-0.119
14,ACCGGGGA,0.284
15,ACACTGCA,-0.12
16,ACGTTTGG,-0.208
17,AGCCAACC,-0.0215
18,AAGACGAC,-0.0829
19,TGAGATCA,-0.0889
20,CTTCTTCC,-0.0305
21,CTAGAGTC,-0.368
22,AGAGACTC,-0.274
23,CGAGTGCG,0.151
24,AAGGCATC,-0.19
25,CTAAAGCA,0.00108

row,Sequence,PBM E-score
1,ATGTATCG,0.179
2,ATCAGGTG,-0.0187
3,GTGTAAAC,-0.0992
4,CCCCTCCG,0.232
5,AACCAATA,-0.14
6,AAGTGTTG,-0.0459
7,AACGAACC,-0.185
8,TACAGTCA,-0.288
9,TGCCCCCA,-0.31
10,CCAGTTGC,-0.172
11,ATCATTAA,0.191
12,TGAGAGCA,-0.182
13,ACAGCGAA,-0.114
14,ACCGTTCG,0.0834
15,CATCAGCA,-0.246
16,CGTGGCTA,-0.173
17,GATCCATC,0.149
18,AATCAATA,0.0483
19,CATTGGGA,-0.188
20,ACGAAGAC,-0.133
21,CGCTCTGA,-0.102
22,CCCCGGTC,0.349
23,ATAAATCC,0.325
24,CCCGATTC,0.292
25,AACAAAGT,0.00728

row,Sequence,PBM E-score
1,ATTTGAAC,0.128
2,ACACTGAC,-0.0473
3,CCCGCCAC,-0.00132
4,AAAGGGCG,-0.0369
5,TACGCCAA,-0.242
6,CGATACAC,0.104
7,CTTCGTCA,-0.234
8,CGCCGAGA,0.37
9,AATATATG,0.0844
10,AGTACTCC,0.061
11,CGTCAGCA,-0.115
12,ACACGGGC,0.206
13,AATTTTCT,-0.0201
14,AACAGTCT,-0.305
15,GATCTAAC,-0.0293
16,CAATTATA,-0.201
17,CGCCTTTA,0.0888
18,CGGTAGTA,0.206
19,CCAGTCTA,-0.174
20,GCTTGTGA,-0.252
21,GCTGCCTA,-0.086
22,ACGGGTGC,0.0022
23,AAATCTAC,0.0453
24,CACCTATG,0.0289
25,ACCTGTCA,-0.0953

row,Sequence,PBM E-score
1,GCGTGCTA,-0.285
2,ATAGATGG,-0.212
3,CTGCTCTA,-0.205
4,CATGTTCC,-0.0353
5,ACACCTAG,-0.169
6,CGGCACGA,0.0969
7,GATCTCTA,-0.212
8,CCTTCGAC,-0.318
9,CACGCTGC,-0.0969
10,ACTTAACG,0.0345
11,CAAGAGGC,-0.198
12,AGGTCCAC,-0.105
13,AAAGCGGT,0.0284
14,ATGTTCGC,-0.044
15,CAGTGTTC,-0.0181
16,AAATCTGT,-0.0739
17,AAAATAGT,-0.161
18,ATCTCGTC,0.0634
19,CCACTGCG,-0.0793
20,AGCCCAAG,-0.158
21,GAGCGGCC,0.139
22,ACAAGCGA,0.0693
23,CCTGATAC,-0.0985
24,CCCACAAA,-0.103
25,CTTACGGA,0.278

row,Sequence,PBM E-score
1,CGGAGAAG,0.378
2,AAATAGTG,-0.0937
3,AGTAAGAT,-0.0935
4,CTCCTGGC,0.0023
5,AACTCTCA,-0.326
6,GACTGGAA,-0.0348
7,CAGTGGGA,-0.128
8,CATCAAAC,-0.0945
9,GGGTTGGA,-0.0191
10,GATCTACA,0.00709
11,ACAGACCT,-0.0718
12,AGTACCCG,0.1
13,ACGGTTGA,-0.185
14,AAAATTCA,0.00988
15,CAAAGGTC,-0.148
16,AATCGGAT,0.337
17,CCAGTCGA,-0.121
18,GGGAACGA,-0.00532
19,AGTCTTCG,-0.0554
20,CCCTGTCA,-0.277
21,GGTTGTTA,-0.033
22,CGAACCAG,-0.00442
23,AATGCAAT,-0.372
24,ACCCTGGA,-0.195
25,AGGGCAGA,-0.367

row,Sequence,PBM E-score
1,TCTACCAA,-0.231
2,ATCGAGCG,0.139
3,CATTGCGC,-0.084
4,GGCACCAC,-0.014
5,AATTCCCT,-0.106
6,TAAGTATA,0.16
7,ATAGACCA,-0.129
8,TCCCCAGA,-0.251
9,ATCACCGA,0.417
10,GCGAGTAA,0.0815
11,GTGCACTA,0.00768
12,AAGGAAGG,-0.197
13,GCTGTCAA,-0.115
14,TCAGAACA,-0.14
15,CACTAGTC,-0.0967
16,CCCACGGG,-0.00611
17,ACCAGTGC,-0.229
18,AAGTGAGT,-0.229
19,CGGTAAGA,0.253
